This is an account of results in ChEMBL document CHEMBL4888484, “Replenishing the malaria drug discovery pipeline: Screening and hit evaluation of the MMV Hit Generation Library 1 (HGL1) against asexual blood stage Plasmodium falciparum ,using a nano luciferase reporter read-out” (2022).

SMILES strings stand for the structures. In all, about 150,000 compounds went through this assay and about 540 (0.36%) showed an effect of 50% or more. The list shows a part of the results.

For the test, the system named is Plasmodium falciparum. Description: Primary screen in NF54 nanoGlo assay, in single point, at 2uM, 72h; a lower Z score goes with more inhibition. In kind it is functional, Erythrocyte. Particulars: timepoint 72 hour.
As a reminder, the % Inhibition is the relative decrease from the control value, in per cent. With `COc1ccccc1[C@H](c1c(NC(=O)c2cccs2)sc(C)c1C)N1CCC(C)CC1`, the “% Inhibition” value stood at 6% and the Z score is -1.24.
The like results for `CN(C)c1ccc(-c2noc(-c3ccc(F)c(Cl)c3)n2)cc1` were, in that order, -5% and 0.67.
In the case of `O=C(NC(c1ccccc1)c1ccccc1)C1CCN(S(=O)(=O)Cc2ccc(F)cc2)CC1`, the “% Inhibition” value is listed as -3% and the Z score is listed as 0.66.
The like results for `Cc1csc(Cn2cc(C(N)=O)nc2C2CC2)n1` were, in that order, -14% and 1.57.
The like results for `Cc1noc(C)c1CNc1cc(C(C)C)on1` were, in that order, -14% and 2.72.
On to `CNc1ccc(NC(=O)NCc2cccnc2N2CCOCC2)cn1`, for which the “% Inhibition” value is listed as 33% and the Z score was -3.79.
On to `CCN1CCN(S(=O)(=O)CCc2scnc2C)C[C@H]1c1ncc[nH]1`, for which the “% Inhibition” value is listed as -6% and the Z score stood at 1.3.
For the compound `C=CCn1cnc(-c2ccccc2)c1-c1ccc2onc(C)c2c1`, the “% Inhibition” value is given as -10% and the Z score was 1.27.
The matching figures for `O=c1scnn1Cc1nc(C(F)(F)F)cs1`: -12% and 1.37.
The matching figures for `Cc1cccc(C(=O)NCC[C@H](O)C2CCOCC2)c1`: -7% and 1.32.
As for `COc1ccccc1C(=O)NC[C@H]1CCN(C2CCCCCC2)C1`, the “% Inhibition” value is -2% and the Z score was determined as 0.29.
In the case of `COC1CN(C(=O)C2CC=CC2)CCC1C` (centres undefined), the “% Inhibition” value was -7% and the Z score was 0.84.
The matching figures for `O=C(NCCn1cnc(C2CC2)cc1=O)[C@@H]1CCCO1`: -3% and 0.53.
For the compound `O=C(C[C@@H]1C=CCC1)N1CCCN(S(=O)(=O)N2CCCCC2)CC1`, the “% Inhibition” value is recorded as -4% and the Z score was 0.74.
In the case of `C[C@@H]1CN(Cc2cn(Cc3ccncc3Cl)nn2)C[C@H](C)O1`, the “% Inhibition” value is given as -18% and the Z score was 3.13.
The like results for `Cn1nc(CCC(=O)N2CCCCC2)c2c1CCN(Cc1cccc(Cl)c1)C2` were, in that order, -10% and 1.34.
The like results for `COCCCN1C(=O)CC(CC(=O)N[C@@H](C)c2ccccc2)(c2ccccc2)C1=O` (some centres undefined) were, in that order, 11% and -1.59.
The matching figures for `COCCN(CCOC)C(=O)c1cc(C)on1`: -5% and 0.56.
In the case of `CC(C)CC1(CNC(=O)CC[C@H](C)N2CCN(C)CC2)CCC1`, the “% Inhibition” value is on record as 14% and the Z score was -1.85.
The matching figures for `O=C(c1c2c(nc3ccccc13)CCCC2)N1CCC(c2nc(C3CCOCC3)no2)CC1`: -3% and 0.42.
`COc1ccc2nc(N3CC(C(=O)Nc4nc5ccc(S(C)(=O)=O)cc5s4)C3)sc2c1`: the “% Inhibition” value is recorded as -15% and the Z score is given as 2.41.
Turning to `Cc1c(CN2CCC[C@](C)(F)C2)cnn1C`, the “% Inhibition” value is on record as -11% and the Z score amounted to 1.35.
Regarding `O=C(O)[C@@H]1Cc2ccccc2N1S(=O)(=O)C1Cc2ccccc2C1`, the “% Inhibition” value is on record as 6% and the Z score was -1.19.
On to `Cc1nc(N2CCOCC2)c2c(C(=O)Nc3cccc(C)c3C)c(C)oc2n1`, for which the “% Inhibition” value is -5% and the Z score was found to be 0.94.
As to `Cn1nnc(CN2c3ccccc3CC2(C)C)n1`, the “% Inhibition” value is -5% and the Z score is given as 0.5.
For `N#CCC(=O)N(CCn1ccnc1)Cc1ccccc1Br`, the “% Inhibition” value amounted to 5% and the Z score was -0.87.
Take `Cc1cc(C)cc(C(=O)NC(C)(C)CC(C)(C)C)c1`: the “% Inhibition” value was 1% and the Z score is recorded as -0.17.
As to `CC1CCN(C(=O)CN2CCN(S(=O)(=O)c3cccc(F)c3)CC2)CC1`, the “% Inhibition” value was 3% and the Z score was -0.46.
For the compound `CC(CCc1cccn1C)NC(=O)NC1CCN(c2cnn(C)c2)C1` (centres undefined), the “% Inhibition” value is listed as -1% and the Z score came out at 0.08.
The like results for `CCc1n[nH]c(NC(=O)c2cncc(C)c2)c1Br` were, in that order, -2% and 0.32.
With `COc1ccc(S(=O)(=O)N2CC[C@H](Oc3nc(C)cc(C)n3)C2)cc1C`, the “% Inhibition” value is on record as -15% and the Z score came out at 2.36.
With `CN(Cc1nccs1)c1ccc(-c2nc(-c3ccccc3F)no2)cn1`, the “% Inhibition” value is -20% and the Z score stood at 1.78.
With `Cc1cc(C)nc(-c2cccc(C(=O)NC[C@H]3CCOC3)c2)n1`, the “% Inhibition” value is recorded as -2% and the Z score turned out to be 0.19.
For the compound `Oc1cccc(Cc2nc(-c3cccs3)no2)c1`, the “% Inhibition” value is reported as -8% and the Z score was 1.29.
As to `Cc1cc(NC(=O)Cn2ccc(-c3cccc(F)c3)n2)n(C)n1`, the “% Inhibition” value was -21% and the Z score amounted to 3.36.
As to `O=C(NCCc1ccccc1)c1ccc2c3c(cccc13)CC2`, the “% Inhibition” value is given as -4% and the Z score is 0.64.
On to `O=C(Cn1nnc2c1CCCC2)NCc1ccc2cc[nH]c2n1`, for which the “% Inhibition” value amounted to 36% and the Z score is reported as -4.05.
With `O=C(NCc1nccn1CCCc1ccccc1)NOCc1ccc(F)cc1`, the “% Inhibition” value is -34% and the Z score was found to be 3.98.
Turning to `Cc1ccc([C@@H]2CCCCCN2S(=O)(=O)c2ccc3c(c2)CCCC3)s1`, the “% Inhibition” value is -6% and the Z score came to 0.84.
With `CCCN(CC(=O)N(Cc1ccc(F)cc1)C1CCN(C(=O)C(C)C)CC1)S(=O)(=O)CCC`, the “% Inhibition” value is given as -11% and the Z score came out at 1.16.
The like results for `Cn1nc(C(=O)NC2CCCC2)ccc1=O` were, in that order, -3% and 0.43.
Turning to `COC(=O)c1cc(C2CC2)nc2c1c(-c1ccc(C)cc1)nn2[C@H]1CCS(=O)(=O)C1`, the “% Inhibition” value was -3% and the Z score was 0.66.
